Measurements taken from patent US20150168420A1, “BIOORTHOGONAL CHEMICAL INDUCERS OF REVERSIBLE DIMERIZATION FOR CONTROL OF PROTEIN FUNCTION IN CELLS” (MAX-PLANCK-GESELLSCHAFT ZUR FÖRDERUNG DER WISSENSCHAFTEN …, priority 2012, published 2015).

Tested on: Atg16L-Atg5-Atg12 complex
Settings: 1 μM; for autophagy (LC3 localization, LC3-II formation): starved EGFP-LC3 MCF-7 cells; for localization of Atg16L-Atg5-Atg12 complex: starved MCF-7 cells

SMILES	autophagy (LC3 localization, LC3-II formation)	localization of Atg16L-Atg5-Atg12 complex
CCC(C(=O)N1CCCCC1C(=O)O[C@H](CCc1ccc(OC)c(OC)c1)c1cccc(OCC(=O)NCCCOCCOCCOCCCNC(=O)COc2c(OC)cc(Cc3cnc(N)nc3N)cc2OC)c1)c1cc(OC)c(OC)c(OC)c1 (stereo partly shown) [SLF′-TMP]	rapid and significant suppression of autophagy	rapid translocation of Atg16L-Atg5-Atg12 complex to the plasma membrane
COc1cc(Cc2cnc(N)nc2N)cc(OC)c1OC [TMP, 5-(3,4,5-trimethoxybenzyl)pyrimidine-2,4-diamine]	restores LC3-II formation	rapidly recovers the level of Atg16L complex in the cytosol
